Experimental data from the supplement of paper PMC11125491.
± gives the standard deviation of the averaged measurements. Growth of baker's yeast expressing single-residue variants of Pneumocystis jirovecii dihydrofolate reductase in 8.8 or 44 µM methotrexate (about 75% and 90% inhibition of the wild type). Selection coefficient per generation; 0 = like wild type, above 0 = less sensitive, below 0 = more sensitive or loss of function. No active / inactive call per row; the paper calls resistant above 0.220 (8.8 µM) or 0.243 (44 µM) together with a significance test. At 44 µM about 15% of codons end with one read or none, so the lowest values are floors (replicate rank correlation 0.74; 0.94 at 8.8 µM).

B1: UniProt A0EPZ9; numbered along this chain (parent)
chain: MDWQKSLTLIVALTLSRGIGLKNDLPWKLKSDMMFFSRVTSGLLVTRSTGQMNVVLMGRKTWESLPAHSRPLKNRINVVISRQEVLDLGGGAYHARSLDDALALLSQIYDSTSKIQLNRVFVIGGGELCKAAMEHSRLNRIIATVIHNEVDCDVFFPIDFRSSQSCLPWRKQDHSVLEAWVGSKVPQGKINENGFIYEFEMWIRDI

Variants of: B1
Test: selection coefficient against synonymous wild-type codons (log2 per generation); higher = faster growth than wild type
Conditions: with Saccharomyces cerevisiae carrying the variant on a plasmid
Description: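 Pooled growth of yeast carrying single-residue variants of P. jirovecii dihydrofolate reductase (own DFR1 gene intact), two passages at 30 °C, three cultures, sequenced before and after. Codons with under 15 starting reads are left out; codons of one change are averaged.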

Row | Variant | selection coefficient against synonymous wild-type codons (log2) (methotrexate 8.8 µM) | selection coefficient against synonymous wild-type codons (log2) (methotrexate 44 µM)
1 | MDWQKSLTLIVALTLSRGIGLKNDLPWKLKSDMMFFSRVTSGLLVTRSTGQENVVLMGRKTWESLPAHSRPLKNRINVVISRQEVLDLGGGAYHARSLDDALALLSQIYDSTSKIQLNRVFVIGGGELCKAAMEHSRLNRIIATVIHNEVDCDVFFPIDFRSSQSCLPWRKQDHSVLEAWVGSKVPQGKINENGFIYEFEMWIRDI [M52E] | -0.0921 ± 0.059 | -0.152 ± 0.23
2 | MDWQKSLTLIVALTLSRGIGLKNDLPWKLKSDMMFFSRVTSGLLVTRSTGQFNVVLMGRKTWESLPAHSRPLKNRINVVISRQEVLDLGGGAYHARSLDDALALLSQIYDSTSKIQLNRVFVIGGGELCKAAMEHSRLNRIIATVIHNEVDCDVFFPIDFRSSQSCLPWRKQDHSVLEAWVGSKVPQGKINENGFIYEFEMWIRDI [M52F] | -0.105 ± 0.029 | -0.119 ± 0.019
3 | MDWQKSLTLIVALTLSRGIGLKNDLPWKLKSDMMFFSRVTSGLLVTRSTGQGNVVLMGRKTWESLPAHSRPLKNRINVVISRQEVLDLGGGAYHARSLDDALALLSQIYDSTSKIQLNRVFVIGGGELCKAAMEHSRLNRIIATVIHNEVDCDVFFPIDFRSSQSCLPWRKQDHSVLEAWVGSKVPQGKINENGFIYEFEMWIRDI [M52G] | -0.0875 ± 0.067 | -0.127 ± 0.16
4 | MDWQKSLTLIVALTLSRGIGLKNDLPWKLKSDMMFFSRVTSGLLVTRSTGQHNVVLMGRKTWESLPAHSRPLKNRINVVISRQEVLDLGGGAYHARSLDDALALLSQIYDSTSKIQLNRVFVIGGGELCKAAMEHSRLNRIIATVIHNEVDCDVFFPIDFRSSQSCLPWRKQDHSVLEAWVGSKVPQGKINENGFIYEFEMWIRDI [M52H] | -0.101 ± 0.053 | -0.061 ± 0.092
5 | MDWQKSLTLIVALTLSRGIGLKNDLPWKLKSDMMFFSRVTSGLLVTRSTGQINVVLMGRKTWESLPAHSRPLKNRINVVISRQEVLDLGGGAYHARSLDDALALLSQIYDSTSKIQLNRVFVIGGGELCKAAMEHSRLNRIIATVIHNEVDCDVFFPIDFRSSQSCLPWRKQDHSVLEAWVGSKVPQGKINENGFIYEFEMWIRDI [M52I] | -0.0381 ± 0.018 | 0.00581 ± 0.049
6 | MDWQKSLTLIVALTLSRGIGLKNDLPWKLKSDMMFFSRVTSGLLVTRSTGQKNVVLMGRKTWESLPAHSRPLKNRINVVISRQEVLDLGGGAYHARSLDDALALLSQIYDSTSKIQLNRVFVIGGGELCKAAMEHSRLNRIIATVIHNEVDCDVFFPIDFRSSQSCLPWRKQDHSVLEAWVGSKVPQGKINENGFIYEFEMWIRDI [M52K] | -0.101 ± 0.064 | -0.0738 ± 0.098
7 | MDWQKSLTLIVALTLSRGIGLKNDLPWKLKSDMMFFSRVTSGLLVTRSTGQLNVVLMGRKTWESLPAHSRPLKNRINVVISRQEVLDLGGGAYHARSLDDALALLSQIYDSTSKIQLNRVFVIGGGELCKAAMEHSRLNRIIATVIHNEVDCDVFFPIDFRSSQSCLPWRKQDHSVLEAWVGSKVPQGKINENGFIYEFEMWIRDI [M52L] | -0.0965 ± 0.066 | -0.0904 ± 0.17
8 | MDWQKSLTLIVALTLSRGIGLKNDLPWKLKSDMMFFSRVTSGLLVTRSTGQNNVVLMGRKTWESLPAHSRPLKNRINVVISRQEVLDLGGGAYHARSLDDALALLSQIYDSTSKIQLNRVFVIGGGELCKAAMEHSRLNRIIATVIHNEVDCDVFFPIDFRSSQSCLPWRKQDHSVLEAWVGSKVPQGKINENGFIYEFEMWIRDI [M52N] | -0.114 ± 0.072 | -0.0913 ± 0.057
